Data on 26 compounds can be found in PubChem BioAssay AID588579 (National Center for Advancing Translational Sciences (NCATS), 2011).

Molecules are shown by their SMILES. Among all 400,000 compounds or so, about 2,200 (0.55%) were called active. Another 1% or so got no clear call; they are omitted. Calls come from the whole dose curve; as a rule, active = well fitted inhibition curve with a large enough effect; inconclusive = small, poorly fitted or top-dose-only effect, or another doubt; inactive = no such curve, though single readings can be large or run the other way. This is a selection; strong and weak results do not stand in their true shares. The source holds several records for some structures; these can differ, active in one and inactive in another.
% is set by controls: 0 for no effect and ±100 for the full control effect; potency is the fitted concentration of half-maximal effect.

Chain of UniProt Q9UBT6 (Q9UBT6 whole entry, looked up): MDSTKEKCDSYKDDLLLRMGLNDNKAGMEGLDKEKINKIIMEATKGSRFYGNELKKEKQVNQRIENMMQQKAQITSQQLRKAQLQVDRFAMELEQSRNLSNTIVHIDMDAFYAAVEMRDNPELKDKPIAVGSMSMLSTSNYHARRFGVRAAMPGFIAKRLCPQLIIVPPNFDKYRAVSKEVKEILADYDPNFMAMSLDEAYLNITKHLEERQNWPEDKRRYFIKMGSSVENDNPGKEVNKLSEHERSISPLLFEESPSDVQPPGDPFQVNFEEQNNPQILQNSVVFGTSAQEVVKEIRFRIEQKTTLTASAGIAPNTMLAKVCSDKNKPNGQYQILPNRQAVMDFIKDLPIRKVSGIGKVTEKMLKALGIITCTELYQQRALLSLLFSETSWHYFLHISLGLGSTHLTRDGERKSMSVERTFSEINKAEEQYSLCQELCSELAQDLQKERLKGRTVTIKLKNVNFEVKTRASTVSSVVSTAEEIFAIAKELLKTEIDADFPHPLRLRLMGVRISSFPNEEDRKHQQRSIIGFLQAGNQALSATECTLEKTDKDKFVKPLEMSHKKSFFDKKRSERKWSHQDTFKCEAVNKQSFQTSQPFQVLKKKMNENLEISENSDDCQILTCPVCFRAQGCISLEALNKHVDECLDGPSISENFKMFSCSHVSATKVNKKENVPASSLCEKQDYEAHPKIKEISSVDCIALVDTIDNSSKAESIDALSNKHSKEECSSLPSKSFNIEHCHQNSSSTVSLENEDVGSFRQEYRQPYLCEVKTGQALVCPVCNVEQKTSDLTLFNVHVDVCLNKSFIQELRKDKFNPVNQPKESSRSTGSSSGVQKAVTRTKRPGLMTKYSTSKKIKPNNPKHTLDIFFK

For this test, the target named is DNA polymerase kappa (Homo sapiens) (UniProt Q9UBT6). Description: qHTS for Inhibitors of Polymerase Kappa. The conditions noted are these: purified Pol kappa, fluorescent DNA synthesis assay, 10 min; series mostly up to 107 µM; activity, negative = inhibition: at the top concentration. A digest of the protocol:
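Fluorescent qHTS in 1536-well format: enzyme (10 nM) and compound sat 15 min at room temperature before 50 nM substrate (final) was added. Signal taken at 0 and 10 min; no-enzyme buffer wells were negative controls.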
Background: In qHTS, concentration-response curves come from the screen itself.
As to `COc1ccc(-c2ccccc2[C@H]2[C@@H]3C=CC[C@@H](C)[C@@H]3C(=O)N2Cc2ccccc2)cc1`, the “activity, negative = inhibition” value is inactive: -20%.
Take `O=C(/C=C/c1ccc(O)cc1)c1ccc(O)cc1O`: the Potency entry was “inactive”.
Take `COc1ccc(N=C2NC(=O)/C(=C/c3ccco3)S2)cc1`: the “activity, negative = inhibition” value was inactive: -20.2%.
With `CC(/C=N/NC(=O)c1nnn(-c2nonc2N)c1CN(C)C)=C\c1ccco1`, the Potency was active: 79.4 µM.
`CC1CCC(C(C)C)C(P(=O)(c2ccccc2)c2ccccc2)C1` (stereo unspecified): the “activity, negative = inhibition” value is inactive: 16.9% [at 60.1 µM].
Turning to `O=C(N/N=C/c1ccc(F)cc1)c1cc(-c2ccco2)nc2ccccc12`, the Potency was active: 14.1 µM.
On the same count and under the same terms, under `Cc1ccc(NC(=O)CSc2nnc(-c3ccco3)c(-c3ccco3)n2)cc1` stands active: 39.8 µM.
Consider `CC1=C/C(=C(\c2cc(C)c(O)c(Br)c2)c2ccccc2S(=O)(=O)O)C=C(Br)C1=O`, for which the “activity, negative = inhibition” value was inactive: -40.9%.
`NS(=O)(=O)c1cc2c(cc1Cl)NC(C1CC3C=CC1C3)NS2(=O)=O` (stereo unspecified): the Potency result is “inactive”.
Regarding `Cc1cc(C(=O)NCc2ccc(C(=O)O)o2)c(C)o1`, the Potency is active: 31.6 µM.
Take `O=c1oc2c(O)c(O)cc3c(=O)oc4c(O)c(O)cc1c4c23`: the “activity, negative = inhibition” value was inactive: -18.1%.
Take `COC(=O)C1=CO[C@@H](C)[C@H]2CN3CCc4c([nH]c5ccccc45)[C@@H]3C[C@H]12`: the Potency result is “inactive”.
As for `O=C(O)[C@@H]1C[C@H](C(=O)O)N1`, the “activity, negative = inhibition” value was inactive: -26.4% [at 60.1 µM].
For `Cc1ccc2c(=O)cc(C(=O)Nc3c(C)n(C)n(-c4ccccc4)c3=O)oc2c1C`, the “activity, negative = inhibition” value was inactive: 27.5%.
In the case of `Ic1ccc(N2CCN(Cc3c[nH]c4ncccc34)CC2)cc1`, the Potency entry is “inactive”.
The same measure, in the same setting: under `COC(=O)C1C(O)CC[C@@H]2CN3CCc4c([nH]c5ccccc45)C3C[C@@H]12` (stereo partly specified) stands “inactive”.
In the case of `COc1ccc(C2CC(=O)c3c(O)cc(O[C@H]4OC(COC5OC(C)C(O)C(O)[C@@H]5O)C(O)C(O)C4O)cc3O2)cc1O` (stereo partly specified), the “activity, negative = inhibition” value is inactive: -10% [at 60.1 µM].
Consider `COc1ccc(C(=O)CSc2cc(C)[nH]c(=O)n2)cc1`, for which the Potency is active: 79.4 µM.
As for `Nc1nc2ncc(CNc3ccc(C(=O)N[C@@H](CCC(=O)O)C(=O)O)cc3)nc2c(=O)[nH]1`, the Potency entry was “inactive”.
Still for that read-out and setting: the figure for `O=C(O)CCN1C(=O)/C(=C/c2cn(-c3ccccc3)nc2-c2cccs2)SC1=S` is active: 89.1 µM; for `Cc1cc(O)c(C=O)c2c1C(=O)Oc1c(CO)c(O)c3c(c1O2)C(O)OC3=O` (stereo unspecified) it is active: 0.794 µM; for `Cc1cc(NC(=O)Nc2ccc3c(ccn3C)c2)sn1` it is “inactive”.
On to `O=C1OCCN1C(=O)[C@H]1[C@H](c2ccc(Cl)cc2)C(c2ccc(F)cc2)=NN1c1ccccc1`, for which the “activity, negative = inhibition” value is inactive: -2.6%.
In the case of `Cc1cccc(C2=NN(c3ccc(Br)cc3)[C@@H](C(=O)N3CCOC3=O)[C@@H]2C)c1`, the “activity, negative = inhibition” value is inactive: 0.309%.
For `NCCCCCCCCCCNCCCN`, the “activity, negative = inhibition” value is inactive: 10.6% [at 60.1 µM].
On to `N[C@@H](Cc1cc(I)c(Oc2ccc(O)c(I)c2)c(I)c1)C(=O)O`, for which the Potency result was “inactive”.
